Measurements published in PubChem BioAssay AID624296 (National Center for Advancing Translational Sciences (NCATS), 2012).
Among all 350,000 compounds or so, about 9,900 (2.8%) were called active. The shares of active, inactive and inconclusive entries below differ from those in the screen. Calls follow the shape of the dose curve; as a rule, active = well fitted activation curve with a large enough effect; inconclusive = small, poorly fitted or top-dose-only effect; inactive = no such curve, though single readings can be large or run the other way. Potencies of inconclusive entries are left out as doubtful fits.

assay: A quantitative high throughput screen for small molecules that induce DNA re-replication in MCF 10a normal breast cells.; also: nearly all actives have a fitted effect of over 50% in size; as to activity, positive = re-replication: % of control where 0% means no effect; settings: MCF 10A DNA re-replication, Hoechst nuclear intensity, 48 h; activity, positive = re-replication: at 46.1 µM (top of the series)
Potency is read from the fitted curve at half-maximal effect; tags tell the direction and shape of the fitted curve.

Row | SMILES | Potency | activity, positive = re-replication
1 | Cc1cccc(N2CCN(C(=S)Nc3ccc4nc(N5CCOCC5)cc(C)c4c3)CC2C)c1 (stereo unspecified) | active: 11.6 µM | –
2 | COc1ccc(-c2oc3ccc(-c4ccc(OC)nc4)cc3c2-c2ccc(OC)cc2)cc1 | active: 6.51 µM | –
3 | COc1ccccc1NS(=O)(=O)c1cc(N)ccc1N1CCCC1 | inactive | –
4 | Cc1ccc(CSCC(=O)N/N=C/c2ccc(OCC(=O)Nc3ccc(C)cc3)cc2)cc1 | inconclusive [activator, single point] | –
5 | CCO/N=C/c1ccc(OC)c(Oc2nc(OC)cc(OC)n2)c1 | inconclusive [activator, single point] | –
6 | CC(=O)Nc1nc(C)c(C(C)=O)s1 | inactive | –
7 | CCN1CCN(C(=O)c2cc3c(s2)-c2c(C)cccc2OC3)CC1 | inconclusive [activator, single point] | –
8 | Fc1ccc(-c2cnn3c(-c4cccs4)ccnc23)cc1 | inconclusive [activator, single point] | –
9 | COc1ccc(NC(=O)CSc2nc(-c3ccc(C)cc3)cc(C(F)(F)F)c2C#N)cc1 | inactive | –
10 | Cc1ccc(Cc2nnc(SCC(=O)Nc3c(C)cccc3C)[nH]c2=O)cc1 | inactive | –
11 | O=C(NCc1cccnc1)c1ccc(S(=O)(=O)N2CCCCCC2)cc1 | inconclusive [activator, partial curve, poor fit] | –
12 | NS(=O)(=O)c1ccc(NC(=S)N2CCN(Cc3ccc(Cl)c(Cl)c3)CC2)cc1 | inconclusive [activator, single point] | –
13 | COc1c(Br)cc(Br)cc1/C=N/n1c(C)nnc1C | inconclusive [activator, single point] | –
14 | CCOC(=O)c1cc(C#N)c(Oc2ccccc2OC)nc1-c1ccccc1 | inconclusive [activator, full curve, poor fit] | –
15 | CCS(=O)c1ccccc1C(=O)OCC(=O)Nc1ccc2ccccc2c1 (stereo unspecified) | inactive | –
16 | COCCn1c(C)cc(C(=O)COC(=O)c2ccc[nH]c2=O)c1C | inactive | –
17 | CN(C)S(=O)(=O)Oc1cccc(C(=O)Nc2ccc(Cl)cc2)c1 | inconclusive [activator, partial curve, poor fit] | –
18 | CCOC(=O)CCCCCC(=O)Nc1ccc2c(c1)CC(=O)N([C@H](C)CO)C[C@@H](C)[C@H](CN(C)Cc1ccc3c(c1)OCO3)O2 | inconclusive [activator, single point] | –
19 | CCCn1c(=N)n(CC(=O)c2ccc(Cl)c(Cl)c2)c2ccccc21 | inconclusive [activator, single point] | –
20 | COc1ccc(CCCc2nnc(SCC(=O)NN)o2)c(C)c1 | inactive | –
21 | Cc1ccc(-c2nnc(NC(=O)CCS(=O)(=O)c3ccccc3)o2)c(C)c1 | inconclusive [activator, single point] | –
22 | CC(=O)Nc1ccc(S(=O)(=O)Nc2ccc3c(c2)n(C)c(=O)n3C)c(C)c1 | inconclusive [activator, single point] | –

Row | SMILES | Potency | activity, positive = re-replication
23 | CCC1=C(OC(=O)N(CC)CC)N2C(=O)OC(=NCCc3c[nH]c4ccccc34)[C@]2(Cc2ccccc2)[C@H]2C1=CC[C@H]1C(=O)N(CC(=O)OC)C(=O)[C@H]12 | inconclusive [activator, partial curve, poor fit] | –
24 | C[C@H]1CN=C(N(C)C)N1CCC1CCCCC1 | inactive | –
25 | COc1ccc(/C=C2\SC(=S)N(C(C)C(=O)NC3C=CS(=O)(=O)C3)C2=O)cc1 (stereo unspecified) | inconclusive [activator, single point] | –
26 | O=C(CCS(=O)(=O)c1ccccc1)N(CCCN1CCOCC1)c1nc2ccccc2s1 | inconclusive [activator, single point] | –
27 | CCOc1ccc(C(=O)Nc2cccc3ncccc23)cc1Br | active: 0.58 µM | –
28 | COc1cccc(-c2cccc(NC(=O)C3CCN(Cc4cccc(C)n4)CC3)c2)c1 | inconclusive [activator, single point] | –
29 | O=C(/C=C/c1ccccc1)OCC(=O)c1ccc[nH]1 | inconclusive [activator, single point] | –
30 | Cc1cc(C)n(-c2nc(NCCCN(C)C)c3c4c(sc3n2)CCCC4)n1 | inconclusive [activator, partial curve, poor fit] | –
31 | CN1/C(=C/C=C(/C#N)C(N)=O)C(C)(C)c2ccccc21 | active: 5.01 µM | –
32 | CC(C)(C)c1csc(SCC(=O)Nc2ccc(Cl)cn2)n1 | inconclusive [activator, single point] | –
33 | Cc1cc(S(=O)(=O)NCC(c2ccc(F)cc2)N2CCN(C)CC2)ccc1F (stereo unspecified) | inconclusive [activator, single point] | –
34 | O=C(COc1ccc(/C=N/NC(=O)CSCc2ccc([N+](=O)[O-])cc2)cc1)NCc1ccco1 | inconclusive [activator, single point] | –
35 | Cc1cccc2cc(COC(=O)c3ccco3)c(=O)[nH]c12 | inconclusive [activator, single point] | –
36 | O=C(N/N=C/C1C(c2ccccc2)C1(Cl)Cl)c1cccc(Cl)c1 (stereo unspecified) | inactive | –
37 | CCC(C)(C)c1ccc(Oc2cccc(C(=O)O)c2)cc1 | inconclusive [activator, single point] | –
38 | CC(=O)Oc1ccc(C(=O)Nc2cccc(C(=O)c3cccc(NC(=O)c4ccc(OC(C)=O)cc4)c3)c2)cc1 | inconclusive [activator, partial curve] | –
39 | Cc1ccc(NC(=O)C2CC(Cl)=CCC2C(=O)O)c([N+](=O)[O-])c1 (stereo unspecified) | inconclusive [activator, single point] | –
40 | COc1cc2[nH]c(=O)n(Cc3ccc(C(=O)NCC4CCCO4)cc3)c(=O)c2cc1OC (stereo unspecified) | – | inconclusive: 37.9% [activator]
41 | Cc1cc(C)c(OCC(=O)Nc2ccc(NC(=O)c3ccco3)cc2)c([N+](=O)[O-])c1 | inactive | –
42 | O=C(COc1ccc2c(-c3ccccc3)cc(=O)oc2c1)NCCCn1ccnc1 | inconclusive [activator, partial curve, poor fit] | –
43 | COc1ccc(CNC(=O)CN2CCN(C(c3ccccc3)c3ccccc3)CC2)cc1 | inconclusive [activator, single point] | –
44 | S=C(Nc1ccc(Oc2ccccc2)cc1)N1CCOCC1 | inconclusive [activator, single point] | –

Row | SMILES | Potency | activity, positive = re-replication
45 | Cc1ccc(N2CCN(C3=NC(=O)/C(=C\c4cn[nH]c4-c4ccccc4)S3)CC2)cc1 | inconclusive [activator, partial curve] | –
46 | Cc1ccc(S(=O)(=O)N2[C@@H](c3ccccc3F)C(C(=O)O)=CC[C@H]2c2ccc(Cl)c(Cl)c2)cc1 | inconclusive [activator, partial curve, poor fit] | –
47 | CC(=O)NC(Cc1ccccc1)C(=O)NC1CCN(C(=O)c2ccc([N+](=O)[O-])cc2)CC1 (stereo unspecified) | inconclusive [activator, single point] | –
48 | Cc1ccccc1OCCn1c(=O)sc2ccccc21 | inactive | –
49 | S=C(Nc1ccc(Br)cc1)NC1CCCC1 | inactive | –
50 | CC(C)Oc1ccc(S(=O)(=O)N2CCOCC2)cc1NC(=O)C1=NN(c2ccccc2)C(=O)CC1 | inconclusive [activator, single point] | –
51 | COc1ccc(C)cc1NC(=O)c1ccccc1NS(=O)(=O)c1ccc(Cl)s1 | active: 20.6 µM | –
52 | O=C(NC(=S)Nc1ccc(F)c([N+](=O)[O-])c1)c1ccccc1F | inconclusive [activator, single point] | –
53 | C/C(CCN1CCCCc2nc(C)c(C)cc21)=N\O[C@@H](C)c1cn([C@H](CO)Cc2ccccc2)nn1 | inconclusive [activator, full curve, poor fit] | –
54 | c1ccc2c(-c3c[nH]c4ccccc34)c3ccccc3nc2c1 | active: 8.2 µM | –
55 | COc1ccc2c(CC(=O)N3CCN(S(=O)(=O)c4ccc(F)cc4)CC3)coc2c1 | inactive | –
56 | Cc1ccc(C(=O)N/N=C/c2ccoc2)cc1C | inactive | –
57 | CCOc1ccc(C2NC(=O)NC(C)=C2[N+](=O)[O-])cc1OC (stereo unspecified) | inconclusive [activator, single point] | –
58 | Cc1cc(C(=O)Nc2nnc(C(F)(F)F)s2)no1 | inconclusive [activator, full curve, poor fit] | –
59 | CCOc1ccc(/C=C2/Sc3ccc(C(=O)NCC4CCCO4)cc3N(C)C2=O)cc1OC (stereo unspecified) | inconclusive [activator, single point] | –
60 | COc1ccc(C2C(C#N)=C(N)Nc3onc(C(C)(C)C)c32)c(OC)c1 (stereo unspecified) | inconclusive [activator, partial curve, poor fit] | –
61 | CC1CCc2cccc3c2N1c1cc(C#N)c(C#N)cc1O3 (stereo unspecified) | inconclusive [activator, full curve] | –
62 | O=C(N/N=C/C(Br)=C/c1ccccc1)c1ccncc1 | inconclusive [activator, full curve, poor fit] | –
63 | O=C(Nc1ccc(F)cc1)C1CCN(c2ncnc3c2nc2n3CCCCC2)CC1 | inactive | –
64 | COc1cccc(CCC2C(=O)CCCC2=O)c1 | inconclusive [activator, partial curve, poor fit] | –
65 | CCCc1cc(=O)[nH]c2nnc(SCC(=O)NC3CCCCC3)n12 | inactive | –
66 | CCOC(=O)c1snc2c(=O)[nH]cnc12 | inconclusive [activator, single point] | –
